{"source": "PubChem BioAssay (NCATS)", "key": {"[1]": {"assay": "NFAT Signaling Pathway (AID 444);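 further: carbachol stimulus at about its EC50 of 1 µM final; on the % scale 0 is the no-effect control and ±100 the full control effect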", "details": "Jurkat NFAT-bla M1, carbachol, beta-lactamase ratio, 5 h; at 17.2 µM (top of the series) unless noted", "procedure,_shortened": "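Jurkat cells with NFAT-driven β-lactamase reporter and co-expressed M1 receptor, stimulated with carbachol (final 1 uM, ~EC50), compound titration, 5 h at 37 °C. CCF4 loaded 1 h at RT; 460/530 nm ratio gave %activity and AC50.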"}, "[2]": {"assay": "Stat Signaling Pathway (AID 446);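 further: ME-180 cervical cancer cells given 40 pM IL-6 alongside compound; top concentration of the series differs between compounds; on the % scale 0 is the no-effect control and ±100 the full control effect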", "details": "ME-180 SIE beta-lactamase reporter, IL-6 stimulated, 5 h; at 7.69 µM (top of the series) unless noted", "procedure,_shortened": "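Screening format detects activators and inhibitors alike: ME-180 SIE-bla cells stimulated at 40 pM IL-6 for 5 hrs with compound, then dual-emission beta-lactamase read at 405 nm excitation.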"}, "[3]": {"target": "Mitogen-activated protein kinase 10 (Mus musculus) (UniProt Q61831)", "assay": "JNK3 AlphaScreen Assay (AID 530); further: potency means the concentration at half of the fitted maximal effect;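 further: signal reports phosphorylation of biotinylated GST-cJun 1-79 at Ser73 with 10 µM ATP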; on activity change, negative = inhibition: on the % scale 0 is the no-effect control and ±100 the full control effect", "details": "JNK3 lysate, c-Jun phosphorylation; activity change, negative = inhibition: at 57.1 µM (top of the series)", "procedure,_shortened": "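qHTS format: compounds tested as titrations against IL-1beta/TNF-alpha-activated HepG2 lysate JNK3 with biotin-GST-cJun substrate and 10 uM ATP at room temperature. Loss of anti-phospho-cJun AlphaScreen signal indicates inhibition.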"}, "[4]": {"target": "Cytochrome P450 3A4 (Homo sapiens) (UniProt P08684)", "sequence (P08684 whole entry, looked up)": "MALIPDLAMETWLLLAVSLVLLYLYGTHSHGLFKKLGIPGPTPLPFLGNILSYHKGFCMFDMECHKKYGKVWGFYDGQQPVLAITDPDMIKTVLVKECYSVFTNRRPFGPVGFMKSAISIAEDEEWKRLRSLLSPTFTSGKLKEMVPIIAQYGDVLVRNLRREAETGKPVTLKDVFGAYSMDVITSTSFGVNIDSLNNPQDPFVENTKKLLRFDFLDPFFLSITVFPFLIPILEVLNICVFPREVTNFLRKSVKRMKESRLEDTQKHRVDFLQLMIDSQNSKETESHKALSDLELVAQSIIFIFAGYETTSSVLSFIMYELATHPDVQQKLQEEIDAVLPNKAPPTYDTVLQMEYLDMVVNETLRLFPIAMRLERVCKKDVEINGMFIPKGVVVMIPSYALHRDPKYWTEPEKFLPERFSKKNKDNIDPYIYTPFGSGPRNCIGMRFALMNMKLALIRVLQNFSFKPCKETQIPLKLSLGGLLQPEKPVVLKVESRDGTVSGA", "assay": "qHTS Assay for Inhibitors and Substrates of Cytochrome P450 3A4 (AID 884; active means well fitted curve in the direction sought with a large enough effect; inconclusive means small, poorly fitted or top-dose-only effect, or another doubt; inactive means no such curve, though single readings can be large; an effect the other way counts as inactive or inconclusive; further: potency means the concentration at half of the fitted maximal effect; nearly all actives have a fitted effect of over 50% in size)", "procedure,_shortened": "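20 nM human CYP3A4 with 25 uM Luciferin-PPXE (at KM) in 200 mM KPO4, preincubated 10 min with compound; NADPH regeneration started a 60 min RT reaction. Luciferin detected by luminescence, normalized to 57 uM ketoconazole as full inhibition.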"}, "[5]": {"target": "Cytochrome P450 2C9 (Homo sapiens) (UniProt P11712)", "sequence (P11712 whole entry, looked up)": "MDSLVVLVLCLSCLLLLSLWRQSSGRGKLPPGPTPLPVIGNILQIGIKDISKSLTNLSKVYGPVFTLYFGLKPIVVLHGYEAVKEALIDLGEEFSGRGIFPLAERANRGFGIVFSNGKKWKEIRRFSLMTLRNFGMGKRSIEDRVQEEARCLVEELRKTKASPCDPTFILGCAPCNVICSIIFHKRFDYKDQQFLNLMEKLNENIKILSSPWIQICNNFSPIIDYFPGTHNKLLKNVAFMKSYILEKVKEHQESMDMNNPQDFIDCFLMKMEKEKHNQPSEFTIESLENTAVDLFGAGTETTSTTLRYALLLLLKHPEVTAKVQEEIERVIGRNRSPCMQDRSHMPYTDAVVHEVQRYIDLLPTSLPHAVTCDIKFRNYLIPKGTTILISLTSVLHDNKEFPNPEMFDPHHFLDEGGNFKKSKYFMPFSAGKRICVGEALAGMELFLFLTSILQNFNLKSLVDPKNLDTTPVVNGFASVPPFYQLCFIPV", "assay": "qHTS Assay for Inhibitors and Substrates of Cytochrome P450 2C9 (AID 883; active means well fitted curve in the direction sought with a large enough effect; inconclusive means small, poorly fitted or top-dose-only effect, or another doubt; inactive means no such curve, though single readings can be large; an effect the other way counts as inactive or inconclusive; further: potency means the concentration at half of the fitted maximal effect; nearly all actives have a fitted effect of over 60% in size)", "details": "recombinant CYP2C9, luciferin-H luminescence, 60 min; activity change, negative = inhibition: at 57.1 µM (top of the series)", "procedure,_shortened": "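Human CYP2C9 (10nM) with Luciferin-H at 100uM (its KM) in 25mM KPO4; compound preincubated 10 min at 37C, then NADPH regeneration for 60 min at 37C. Luciferin read by luminescence after detection reagent; normalized to 57uM sulphaphenazole as full inhibition.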"}, "[6]": {"target": "Cytochrome P450 2D6 (Homo sapiens) (UniProt P10635)", "sequence (P10635 whole entry, looked up)": "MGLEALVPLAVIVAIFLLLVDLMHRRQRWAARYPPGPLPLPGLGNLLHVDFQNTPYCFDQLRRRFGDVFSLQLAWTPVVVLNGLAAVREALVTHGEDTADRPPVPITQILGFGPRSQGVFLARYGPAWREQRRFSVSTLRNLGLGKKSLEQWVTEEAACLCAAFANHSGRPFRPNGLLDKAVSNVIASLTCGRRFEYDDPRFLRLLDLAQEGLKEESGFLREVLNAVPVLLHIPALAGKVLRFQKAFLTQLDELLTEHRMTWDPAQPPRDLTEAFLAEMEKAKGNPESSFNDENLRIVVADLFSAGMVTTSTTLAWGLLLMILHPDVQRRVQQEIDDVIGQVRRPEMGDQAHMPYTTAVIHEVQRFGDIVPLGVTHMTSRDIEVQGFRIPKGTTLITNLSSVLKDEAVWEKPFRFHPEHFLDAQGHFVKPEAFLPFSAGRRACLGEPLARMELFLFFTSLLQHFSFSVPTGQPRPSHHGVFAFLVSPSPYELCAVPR", "assay": "qHTS Assay for Inhibitors and Substrates of Cytochrome P450 2D6 (AID 891; active means well fitted curve in the direction sought with a large enough effect; inconclusive means small, poorly fitted or top-dose-only effect, or another doubt; inactive means no such curve, though single readings can be large; an effect the other way counts as inactive or inconclusive;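 further: luciferin methyl ether substrate demethylated by CYP2D6 with NADPH regeneration; potency means the concentration at half of the fitted maximal effect; nearly all actives have a fitted effect of over 60% in size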)", "details": "recombinant CYP2D6, luciferin-ME EGE luminescence; activity change, negative = inhibition: at 57.1 µM (top of the series)", "procedure,_shortened": "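Human CYP2D6 (5 nM) with 30 uM Luciferin-ME EGE (at Km) in 100 mM KPO4, compound preincubated 10 min, then NADPH regeneration system for 60 min at room temperature. Luciferin read by luminescence; normalized to 1.43 uM quinidine.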"}, "[7]": {"assay": "qHTS Assay for Identification of Small Molecule Agonists for Hypoxia Response Element Signaling Pathway (AID 914; active means well fitted activation curve with a large enough effect in the signal ratio, with a control signal flat, not every such curve was filed as active; inconclusive means small, poorly fitted or top-dose-only effect, or effect the other way, or a change in a side signal; the % refers to the signal ratio; further: potency means the concentration at half of the fitted maximal effect; on activation: top concentration of the series differs between compounds; % of control where 0% means no effect)", "details": "ME-180 HRE-bla reporter, beta-lactamase ratio, CoCl2, 17 h; activation: stronger effect = higher value", "procedure,_shortened": "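Positive modulation of EC50 CoCl2-induced hypoxia response element signaling is measured in ME-180 cells with a beta-lactamase reporter. Compounds are titrated, incubation runs 17 hours, and %Activity derives from the blue/green ratio.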"}, "[8]": {"target": "3',5'-cyclic-AMP phosphodiesterase 4B (Homo sapiens) (UniProt Q07343)", "sequence (Q07343 whole entry, looked up)": "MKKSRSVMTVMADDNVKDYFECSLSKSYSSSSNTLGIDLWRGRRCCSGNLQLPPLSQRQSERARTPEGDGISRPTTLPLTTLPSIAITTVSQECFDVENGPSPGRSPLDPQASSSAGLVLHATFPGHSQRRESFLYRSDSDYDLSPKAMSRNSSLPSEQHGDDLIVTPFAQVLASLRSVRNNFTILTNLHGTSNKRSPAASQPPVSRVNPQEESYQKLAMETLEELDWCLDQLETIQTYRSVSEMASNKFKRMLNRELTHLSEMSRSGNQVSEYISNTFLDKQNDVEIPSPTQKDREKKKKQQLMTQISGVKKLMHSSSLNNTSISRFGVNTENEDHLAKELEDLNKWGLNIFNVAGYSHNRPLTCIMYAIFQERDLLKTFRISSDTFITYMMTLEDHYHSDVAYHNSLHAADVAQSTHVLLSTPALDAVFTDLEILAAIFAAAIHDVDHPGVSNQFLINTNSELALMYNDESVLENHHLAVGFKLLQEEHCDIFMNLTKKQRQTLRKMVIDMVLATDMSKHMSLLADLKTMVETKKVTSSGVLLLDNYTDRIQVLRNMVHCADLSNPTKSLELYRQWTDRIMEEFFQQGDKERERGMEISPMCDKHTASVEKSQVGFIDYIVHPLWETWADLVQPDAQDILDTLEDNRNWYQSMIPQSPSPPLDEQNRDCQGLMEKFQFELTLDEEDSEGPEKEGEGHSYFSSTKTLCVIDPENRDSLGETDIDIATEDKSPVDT", "assay": "qHTS Assay for Inhibitors of PDE-IV (AID 607; active means well fitted activation curve with a large enough effect in the main read-out, with a control signal flat, not every such curve was filed as active; inconclusive means small, poorly fitted or top-dose-only effect, or effect the other way, or a change in a side signal; further: % of control where 0% means no effect)", "details": "HEK293 ACTOne CNG channel cells, membrane potential fluorescence; activation (PDE inhibition): at 22.9 µM (top of the series)", "procedure,_shortened": "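The readout is membrane depolarisation from a cAMP-sensing CNG channel, detected with a potential dye at ex 535/em 590. Cells were HEK293-derived (endogenous PDE-IV) at 1000 cells/well, titrated up to 22.9 uM final.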"}, "[9]": {"target": "Ubiquitin carboxyl-terminal hydrolase 1 (Homo sapiens) (UniProt O94782)", "sequence (O94782 whole entry, looked up)": "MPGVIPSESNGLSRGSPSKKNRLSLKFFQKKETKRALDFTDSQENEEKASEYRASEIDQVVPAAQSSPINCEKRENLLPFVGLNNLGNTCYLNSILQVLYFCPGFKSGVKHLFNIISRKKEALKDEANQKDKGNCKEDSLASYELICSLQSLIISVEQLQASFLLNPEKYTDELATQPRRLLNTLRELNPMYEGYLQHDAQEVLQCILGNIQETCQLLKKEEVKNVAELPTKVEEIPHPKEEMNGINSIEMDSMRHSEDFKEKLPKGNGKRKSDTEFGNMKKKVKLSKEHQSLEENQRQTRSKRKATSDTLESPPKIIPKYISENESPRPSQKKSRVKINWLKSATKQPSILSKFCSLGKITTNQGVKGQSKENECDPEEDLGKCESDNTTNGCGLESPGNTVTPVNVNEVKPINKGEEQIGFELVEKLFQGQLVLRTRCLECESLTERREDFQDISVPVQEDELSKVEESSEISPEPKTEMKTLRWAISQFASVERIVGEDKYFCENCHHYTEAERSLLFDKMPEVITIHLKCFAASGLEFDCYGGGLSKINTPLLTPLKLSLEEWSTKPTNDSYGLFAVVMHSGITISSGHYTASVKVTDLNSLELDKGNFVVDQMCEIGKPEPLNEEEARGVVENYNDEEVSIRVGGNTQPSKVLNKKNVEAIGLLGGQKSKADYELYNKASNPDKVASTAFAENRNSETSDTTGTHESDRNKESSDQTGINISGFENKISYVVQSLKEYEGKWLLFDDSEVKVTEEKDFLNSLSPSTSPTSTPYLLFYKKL", "assay": "Inhibitors of USP1/UAF1: Pilot qHTS (AID 504865; active means well fitted curve in the direction sought with a large enough effect; inconclusive means small, poorly fitted or top-dose-only effect, or another doubt; inactive means no such curve, though single readings can be large; an effect the other way counts as inactive or inconclusive;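 further: rhodamine fluorescence freed from ubiquitin-rhodamine substrate followed over time; potency means the concentration at half of the fitted maximal effect; nearly all actives have a fitted effect of over 35% in size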)", "procedure,_shortened": "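Kinetic fluorescence assay: 1nM USP1/UAF1, 15 min compound preincubation, then 150nM Ub-Rho; 480/540 nm.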"}, "[10]": {"system": "AA1029", "assay": "qHTS profiling for inhibitors of Plasmodium falciparum proliferation (AID 504749; active means well fitted curve in the direction sought with a large enough effect; inconclusive means small, poorly fitted or top-dose-only effect, or another doubt; inactive means no such curve, though single readings can be large; an effect the other way counts as inactive or inconclusive; further: nearly all actives have a fitted effect of over 60% in size; further: potency means the concentration at half of the fitted maximal effect;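 on activity, negative = inhibition: 0% = DMSO vehicle and full inhibition = artemisinin control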)", "details": "P. falciparum in erythrocytes, SYBR Green DNA, 72 h; series mostly up to 28.7 µM", "procedure,_shortened": "(§1)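 Readout was DNA-dye fluorescence from lysed cultures, ex 485/em 535 nm. Parasitized red cells had grown 72 h with compound; data scaled between 0.29 uM artemisinin and DMSO wells and corrected using vehicle-only plates.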"}, "[11]": {"system": "CP335", "assay": "qHTS profiling for inhibitors of Plasmodium falciparum proliferation (AID 504749)", "details": "P. falciparum in erythrocytes, SYBR Green DNA, 72 h; series mostly up to 28.7 µM", "procedure,_shortened": "as §1"}, "[12]": {"system": "DIV30", "assay": "qHTS profiling for inhibitors of Plasmodium falciparum proliferation (AID 504749)", "details": "P. falciparum in erythrocytes, SYBR Green DNA, 72 h; series mostly up to 28.7 µM", "procedure,_shortened": "as §1"}, "[13]": {"system": "P93_24", "assay": "qHTS profiling for inhibitors of Plasmodium falciparum proliferation (AID 504749)", "details": "P. falciparum in erythrocytes, SYBR Green DNA, 72 h; series mostly up to 28.7 µM", "procedure,_shortened": "as §1"}}, "note": "The inconclusive results got no clear call from the source; some entries with a clear call stand among them for comparison. For some assays here: Potencies beside an inconclusive call are fits to weak or partial responses and may not hold up. Activity calls are given as the source filed them. Unless noted, the call rests on the fitted dose curve; in most records, active means well fitted curve in either direction with a large enough effect (not every such curve was filed as active); inconclusive means small, poorly fitted or top-dose-only effect, or another doubt; inactive means flat fitted curve, though single readings scatter. Tags describe the fitted curve by direction and shape or compound fluorescence and quenching."}
{"smiles": "Fc1ccc2[nH]c3c(N4CCSCC4)ncnc3c2c1", "values": [{"measurement": "activity change, negative = inhibition", "setting": "[1]", "value": "inconclusive: -85.8% [inhibitor]"}, {"measurement": "activity, negative = inhibition", "setting": "[2]", "value": "inconclusive: -49.1% [inhibitor] [at 17.2 µM]"}]}
{"smiles": "CCOC(=O)c1c2c(n3ccccc13)C(=O)c1ccccc1C2=O", "values": [{"measurement": "activity change, negative = inhibition", "setting": "[1]", "value": "inconclusive: -45.5% [inhibitor] [at 7.69 µM]"}, {"measurement": "activity, negative = inhibition", "setting": "[2]", "value": "inconclusive: 43.5% [activator]"}, {"measurement": "Potency", "setting": "[3]", "value": "inconclusive: 3.16 µM [inhibitor, partial curve]"}, {"measurement": "Potency", "setting": "[4]", "value": "inconclusive: 3.16 µM [inhibitor, partial curve]"}]}
{"smiles": "Cn1c(Sc2ccc(-c3cccnc3)n2C)ccc1-c1cccnc1", "values": [{"measurement": "activity change, negative = inhibition", "setting": "[1]", "value": "inactive: -29.9% [at 7.69 µM]"}, {"measurement": "activity, negative = inhibition", "setting": "[2]", "value": "inconclusive: -48.3% [inhibitor]"}, {"measurement": "Potency", "setting": "[3]", "value": "inconclusive: 1.26 µM [inhibitor, partial curve]"}, {"measurement": "Potency", "setting": "[5]", "value": "inconclusive: 3.98 µM [inhibitor, single point]"}, {"measurement": "Potency", "setting": "[6]", "value": "inconclusive: 3.16 µM [inhibitor, partial curve]"}, {"measurement": "Potency", "setting": "[7]", "value": "inconclusive: 5.01 µM [inhibitor, single point]"}]}
{"smiles": "O=C(c1cc(Br)ccc1O)c1cc(Br)ccc1O", "values": [{"measurement": "activity change, negative = inhibition", "setting": "[1]", "value": "inconclusive: -79.1% [inhibitor] [at 7.69 µM]"}, {"measurement": "activity, negative = inhibition", "setting": "[2]", "value": "inactive: -28%"}, {"measurement": "activity change, negative = inhibition", "setting": "[3]", "value": "inactive: -0.0292% [at 11.4 µM]"}, {"measurement": "activation", "setting": "[7]", "value": "inconclusive: -30.4%"}]}
{"smiles": "Cn1c(=O)c2c3c(sc2n2c(SCC(N)=O)nnc12)CC(C(C)(C)C)CC3", "note": "(stereo unspecified)", "values": [{"measurement": "activity change, negative = inhibition", "setting": "[1]", "value": "inactive: 19.6%"}, {"measurement": "activity, negative = inhibition", "setting": "[2]", "value": "inactive: 14% [at 17.2 µM]"}]}
{"smiles": "NCc1ccccc1CC(=O)N[C@@H]1C(=O)N2C(C(=O)O)=C(CSc3nnnn3CC(=O)O)CS[C@@H]12", "values": [{"measurement": "activity change, negative = inhibition", "setting": "[1]", "value": "inconclusive: 141% [activator]"}, {"measurement": "activity, negative = inhibition", "setting": "[2]", "value": "inactive: -11.7% [at 17.2 µM]"}, {"measurement": "Potency", "setting": "[8]", "value": "inactive"}, {"measurement": "Potency", "setting": "[9]", "value": "inconclusive: 31.6 µM [inhibitor, partial curve]"}, {"measurement": "Potency", "setting": "[10]", "value": "inactive"}, {"measurement": "Potency", "setting": "[11]", "value": "inactive"}, {"measurement": "Potency", "setting": "[12]", "value": "inconclusive: 2 nM [inhibitor, partial curve, poor fit]"}, {"measurement": "Potency", "setting": "[13]", "value": "inactive"}]}
